Tested on: Na+ channel (site 2)
Conditions: at 1 μM; rat cerebral cortex; [3H]batrachotoxin

## CC(C)(C)c1ccc(OCCCN2CCCCC2)cc1 [DL76, 1-(3-(4-tert-butyl-phenoxy)propyl) piperidine]
  Na+ channel (site 2) inhibition: 32%
